This passage reports Reactivity (OD492) results from patent US9371374.

What all share (assay): EIA, captured mAb
Assay [1] concerns the target biotinylated HCV core peptide […] (Peptide 2) (HCV-1).
Assay [2] concerns the target biotinylated HCV core peptide […] (Peptide 3) (HCV-1).
Assay [3] deals with biotinylated HCV core peptide […] (Peptide 1) (HCV-1).

B1: HCV 208A-334 (antibody, V domains shown)
VH: [about 120 residues skipped]
VL: DIVLTQSPASLAVSLGQRATISCRASQSVSTSRYSYMHWYQQKPGQPPKLLIKYASNLESGVPARFSGSGSGTDFTLNIHPVAEEDTAAYYCQHSWGFPFTFGSGTKLEIKR
Consider B1, for which the Reactivity (OD492) came to 3.07 OD in assay [1], 0.05 OD in assay [2] and 0.05 OD in assay [3].
